# Source: the supplement of paper PMC8728848
# The list shows a part of the results.
# B1: Banana lectin (Musa acuminata) (protein)
# chain: MNGAIKVGAHGGNGGSAFDMGPAYRIISVKIFSGDVVDGVDVTFTYYGKTETRHYGGSGGTPHEIVLQEGEYLVGMAGEVANYHGAVVLGKLGFSTNKKAYGPFGNTGGTPFSLPIAAGKISGFFGRGGKFLDAIGVYLEPLEHHHHHH
# What was measured:
# Test in all cases: glycan array binding signal (z-score within array); higher = stronger binding
# Details in all cases: glycan notation: IUPAC condensed, linker removed; mutation: W10H
# [1] = target: GlcNAc(b1-3)Gal(b1-3)GalNAc
# Method in brief: (§1)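 The binding signal is a Z-score computed within each array and averaged over linkers. Arrays of the same protein sequence at different concentrations or buffers were also averaged together. Data originate from 3228 arrays in the Consortium for Functional Glycomics database, kept only where the protein sequence was available.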
# GlcNAc(b1-3)Gal(b1-4)Glc = target: GlcNAc(b1-3)Gal(b1-4)Glc
# Method in brief: as §1
# [2] = target: GlcNAc(b1-3)Gal(b1-4)GlcNAc
# Method in brief: as §1
# [3] = target: GlcNAc(b1-3)Gal(b1-4)GlcNAc(b1-2)Man(a1-3)[GlcNAc(b1-3)Gal(b1-4)GlcNAc(b1-2)Man(a1-6)]Man(b1-4)GlcNAc(b1-4)GlcNAc
# Method in brief: as §1
# [4] = target: GlcNAc(b1-3)Gal(b1-4)GlcNAc(b1-2)Man(a1-3)[GlcNAc(b1-3)Gal(b1-4)GlcNAc(b1-2)Man(a1-6)]Man(b1-4)GlcNAc(b1-4)[Fuc(a1-6)]GlcNAc
# Method in brief: as §1
# [5] = target: GlcNAc(b1-3)Gal(b1-4)GlcNAc(b1-2)[GlcNAc(b1-3)Gal(b1-4)GlcNAc(b1-6)]Man(a1-6)[GlcNAc(b1-3)Gal(b1-4)GlcNAc(b1-2)Man(a1-3)]Man(b1-4)GlcNAc(b1-4)GlcNAc
# Method in brief: as §1
# [6] = target: GlcNAc(b1-3)Gal(b1-4)GlcNAc(b1-3)Gal(b1-4)GlcNAc
# Method in brief: as §1
# [7] = target: GlcNAc(b1-3)Gal(b1-4)GlcNAc(b1-3)Gal(b1-4)GlcNAc(b1-2)Man(a1-3)[GlcNAc(b1-3)Gal(b1-4)GlcNAc(b1-3)Gal(b1-4)GlcNAc(b1-2)Man(a1-6)]Man(b1-4)GlcNAc(b1-4)GlcNAc
# Method in brief: as §1
# [8] = target: GlcNAc(b1-3)Gal(b1-4)GlcNAc(b1-3)Gal(b1-4)GlcNAc(b1-2)Man(a1-3)[GlcNAc(b1-3)Gal(b1-4)GlcNAc(b1-3)Gal(b1-4)GlcNAc(b1-2)Man(a1-6)]Man(b1-4)GlcNAc(b1-4)[Fuc(a1-6)]GlcNAc
# Method in brief: as §1
# [9] = target: GlcNAc(b1-3)Gal(b1-4)GlcNAc(b1-3)Gal(b1-4)GlcNAc(b1-2)[GlcNAc(b1-3)Gal(b1-4)GlcNAc(b1-3)Gal(b1-4)GlcNAc(b1-6)]Man(a1-6)[GlcNAc(b1-3)Gal(b1-4)GlcNAc(b1-3)Gal(b1-4)GlcNAc(b1-2)Man(a1-3)]Man(b1-4)GlcNAc(b1-4)[Fuc(a1-6)]GlcNAc
# Method in brief: as §1
# [10] = target: GlcNAc(b1-3)Gal(b1-4)GlcNAc(b1-3)Gal(b1-4)GlcNAc(b1-3)Gal(b1-4)GlcNAc(b1-2)Man(a1-3)[GlcNAc(b1-3)Gal(b1-4)GlcNAc(b1-3)Gal(b1-4)GlcNAc(b1-3)Gal(b1-4)GlcNAc(b1-2)Man(a1-6)]Man(b1-4)GlcNAc(b1-4)GlcNAc
# Method in brief: as §1
# [11] = target: GlcNAc(b1-3)Gal(b1-4)GlcNAc(b1-3)Gal(b1-4)GlcNAc(b1-3)Gal(b1-4)GlcNAc(b1-2)Man(a1-3)[GlcNAc(b1-3)Gal(b1-4)GlcNAc(b1-3)Gal(b1-4)GlcNAc(b1-3)Gal(b1-4)GlcNAc(b1-2)Man(a1-6)]Man(b1-4)GlcNAc(b1-4)[Fuc(a1-6)]GlcNAc
# Method in brief: as §1
# [12] = target: GlcNAc(b1-3)Gal(b1-4)GlcNAc(b1-3)Gal(b1-4)GlcNAc(b1-3)Gal(b1-4)GlcNAc(b1-2)[GlcNAc(b1-3)Gal(b1-4)GlcNAc(b1-3)Gal(b1-4)GlcNAc(b1-3)Gal(b1-4)GlcNAc(b1-6)]Man(a1-6)[GlcNAc(b1-3)Gal(b1-4)GlcNAc(b1-3)Gal(b1-4)GlcNAc(b1-3)Gal(b1-4)GlcNAc(b1-2)Man(a1-3)]Man(b1-4)GlcNAc(b1-4)[Fuc(a1-6)]GlcNAc
# Method in brief: as §1
# [13] = target: GlcNAc(b1-3)Gal(b1-4)GlcNAc(b1-3)Gal(b1-4)GlcNAc(b1-3)Gal(b1-4)GlcNAc(b1-3)Gal(b1-4)GlcNAc(b1-2)Man(a1-3)[GlcNAc(b1-3)Gal(b1-4)GlcNAc(b1-3)Gal(b1-4)GlcNAc(b1-3)Gal(b1-4)GlcNAc(b1-3)Gal(b1-4)GlcNAc(b1-2)Man(a1-6)]Man(b1-4)GlcNAc(b1-4)GlcNAc
# Method in brief: as §1
# [14] = target: GlcNAc(b1-3)Gal(b1-4)GlcNAc(b1-3)Gal(b1-4)GlcNAc(b1-3)Gal(b1-4)GlcNAc(b1-3)Gal(b1-4)GlcNAc(b1-2)Man(a1-3)[GlcNAc(b1-3)Gal(b1-4)GlcNAc(b1-3)Gal(b1-4)GlcNAc(b1-3)Gal(b1-4)GlcNAc(b1-3)Gal(b1-4)GlcNAc(b1-2)Man(a1-6)]Man(b1-4)GlcNAc(b1-4)[Fuc(a1-6)]GlcNAc
# Method in brief: as §1
# [15] = target: GlcNAc(b1-3)Gal(b1-4)GlcNAc(b1-3)Gal(b1-4)GlcNAc(b1-3)Gal(b1-4)GlcNAc(b1-3)Gal(b1-4)GlcNAc(b1-2)[GlcNAc(b1-3)Gal(b1-4)GlcNAc(b1-3)Gal(b1-4)GlcNAc(b1-3)Gal(b1-4)GlcNAc(b1-3)Gal(b1-4)GlcNAc(b1-6)]Man(a1-6)[GlcNAc(b1-3)Gal(b1-4)GlcNAc(b1-3)Gal(b1-4)GlcNAc(b1-3)Gal(b1-4)GlcNAc(b1-3)Gal(b1-4)GlcNAc(b1-2)Man(a1-3)]Man(b1-4)GlcNAc(b1-4)[Fuc(a1-6)]GlcNAc
# Method in brief: as §1
# [16] = target: GlcNAc(b1-3)Gal(b1-4)GlcNAc(b1-3)Gal(b1-4)GlcNAc(b1-3)GalNAc
# Method in brief: as §1
# [17] = target: GlcNAc(b1-3)Gal(b1-4)GlcNAc(b1-3)GalNAc
# Method in brief: as §1
# [18] = target: GlcNAc(b1-3)Gal(b1-4)GlcNAc(b1-3)[GlcNAc(b1-3)Gal(b1-4)GlcNAc(b1-3)]GalNAc
# Method in brief: as §1
# [19] = target: GlcNAc(b1-3)Gal(b1-4)GlcNAc(b1-6)[Gal(b1-3)]GalNAc
# Method in brief: as §1
# [20] = target: GlcNAc(b1-3)Gal(b1-4)GlcNAc(b1-6)[GlcNAc(b1-3)Gal(b1-3)]GalNAc
# Method in brief: as §1
# [21] = target: GlcNAc(b1-3)Gal(b1-4)GlcNAc(b1-6)[GlcNAc(b1-3)]Gal(b1-4)GlcNAc
# Method in brief: as §1
# GlcNAc(b1-3)GalNAc = target: GlcNAc(b1-3)GalNAc
# Method in brief: as §1
# GlcNAc(b1-3)Man = target: GlcNAc(b1-3)Man
# Method in brief: as §1
# [22] = target: GlcNAc(b1-3)[GlcNAc(b1-4)][GlcNAc(b1-6)]GlcNAc
# Method in brief: as §1
# [23] = target: GlcNAc(b1-3)[GlcNAc(b1-6)]Gal(b1-4)GlcNAc
# Method in brief: as §1
# [24] = target: GlcNAc(b1-3)[GlcNAc(b1-6)]GalNAc
# Method in brief: as §1
# [25] = target: GlcNAc(b1-4)Gal(b1-4)GlcNAc
# Method in brief: as §1
# GlcNAc(b1-4)GlcNAc = target: GlcNAc(b1-4)GlcNAc
# Method in brief: as §1
# [26] = target: GlcNAc(b1-4)GlcNAc(b1-4)GlcNAc
# Method in brief: as §1
# [27] = target: GlcNAc(b1-4)GlcNAc(b1-4)GlcNAc(b1-4)GlcNAc(b1-4)GlcNAc
# Method in brief: as §1
# [28] = target: GlcNAc(b1-4)GlcNAc(b1-4)GlcNAc(b1-4)GlcNAc(b1-4)GlcNAc(b1-4)GlcNAc
# Method in brief: as §1
# [29] = target: GlcNAc(b1-4)[GlcNAc(b1-6)]GalNAc
# Method in brief: as §1
# [30] = target: GlcNAc(b1-6)Gal(b1-4)GlcNAc
# Method in brief: as §1
# GlcNAc(b1-6)GalNAc = target: GlcNAc(b1-6)GalNAc
# Method in brief: as §1
# [31] = target: GlcNAc6S(b1-3)Gal(b1-4)GlcNAc
# Method in brief: as §1
# Kdn(a2-3)Gal(b1-3)GalNAc = target: Kdn(a2-3)Gal(b1-3)GalNAc
# Method in brief: as §1
# Kdn(a2-3)Gal(b1-3)GlcNAc = target: Kdn(a2-3)Gal(b1-3)GlcNAc
# Method in brief: as §1
# Kdn(a2-3)Gal(b1-4)Glc = target: Kdn(a2-3)Gal(b1-4)Glc
# Method in brief: as §1
# Kdn(a2-3)Gal(b1-4)GlcNAc = target: Kdn(a2-3)Gal(b1-4)GlcNAc
# Method in brief: as §1
# [32] = target: Kdn(a2-3)Gal(b1-4)[Fuc(a1-3)]GlcNAc
# Method in brief: as §1
# Kdn(a2-6)Gal(b1-4)GlcNAc = target: Kdn(a2-6)Gal(b1-4)GlcNAc
# Method in brief: as §1
# [33] = target: Man(a1-2)Man(a1-2)Man(a1-3)Man
# Method in brief: as §1
# [34] = target: Man(a1-2)Man(a1-2)Man(a1-6)[Man(a1-3)]Man
# Method in brief: as §1
# Man(a1-2)Man(a1-3)Man = target: Man(a1-2)Man(a1-3)Man
# Method in brief: as §1
binder,measurement,setting,value
B1,glycan array binding signal (z-score),[1],-0.145
same,glycan array binding signal (z-score),GlcNAc(b1-3)Gal(b1-4)Glc,-0.133
same,glycan array binding signal (z-score),[2],-0.154
same,glycan array binding signal (z-score),[3],-0.147
same,glycan array binding signal (z-score),[4],-0.095
same,glycan array binding signal (z-score),[5],-0.125
same,glycan array binding signal (z-score),[6],-0.177
same,glycan array binding signal (z-score),[7],-0.172
same,glycan array binding signal (z-score),[8],-0.165
same,glycan array binding signal (z-score),[9],-0.098
same,glycan array binding signal (z-score),[10],-0.109
same,glycan array binding signal (z-score),[11],-0.128
same,glycan array binding signal (z-score),[12],-0.002
same,glycan array binding signal (z-score),[13],-0.097
same,glycan array binding signal (z-score),[14],-0.085
same,glycan array binding signal (z-score),[15],-0.035
same,glycan array binding signal (z-score),[16],-0.168
same,glycan array binding signal (z-score),[17],-0.16
same,glycan array binding signal (z-score),[18],-0.132
same,glycan array binding signal (z-score),[19],-0.167
same,glycan array binding signal (z-score),[20],-0.1
same,glycan array binding signal (z-score),[21],-0.197
same,glycan array binding signal (z-score),GlcNAc(b1-3)GalNAc,-0.175
same,glycan array binding signal (z-score),GlcNAc(b1-3)Man,-0.144
same,glycan array binding signal (z-score),[22],-0.165
same,glycan array binding signal (z-score),[23],-0.143
same,glycan array binding signal (z-score),[24],-0.153
same,glycan array binding signal (z-score),[25],-0.146
same,glycan array binding signal (z-score),GlcNAc(b1-4)GlcNAc,-0.174
same,glycan array binding signal (z-score),[26],-0.159
same,glycan array binding signal (z-score),[27],-0.18
same,glycan array binding signal (z-score),[28],-0.151
same,glycan array binding signal (z-score),[29],-0.165
same,glycan array binding signal (z-score),[30],-0.138
same,glycan array binding signal (z-score),GlcNAc(b1-6)GalNAc,-0.179
same,glycan array binding signal (z-score),[31],-0.152
same,glycan array binding signal (z-score),Kdn(a2-3)Gal(b1-3)GalNAc,-0.164
same,glycan array binding signal (z-score),Kdn(a2-3)Gal(b1-3)GlcNAc,-0.109
same,glycan array binding signal (z-score),Kdn(a2-3)Gal(b1-4)Glc,-0.192
same,glycan array binding signal (z-score),Kdn(a2-3)Gal(b1-4)GlcNAc,-0.175
same,glycan array binding signal (z-score),[32],-0.166
same,glycan array binding signal (z-score),Kdn(a2-6)Gal(b1-4)GlcNAc,-0.142
same,glycan array binding signal (z-score),[33],0.986
same,glycan array binding signal (z-score),[34],7.33
same,glycan array binding signal (z-score),Man(a1-2)Man(a1-3)Man,1.78
